Data on one molecule can be found in patent publication US9266952B2, “Antibodies against ROR1 and uses thereof” (KANCERA AB, priority 2010, dated 2016).

Assay [1] relates to primary patient CLL cells. The experiment in a line: Primary patient CLL cells i.v. in irradiated NOD.SCID mice, spleen. Conditions: 10 mg/kg i.p. from day 5-7 after transfer, sacrificed 3-7 days later, versus isotype control. The format is in vivo. Here is the method:
Primary patient CLL cells are intravenously injected into immuno-deficient NOD. SCID mice. The CLL cells home to the spleen and there form proliferating clusters, very similar to human disease. After allowing to settle in the spleen for 5-7 days, the mice were treated with 10 mg/kg anti-ROR1 antibodies every third day and terminated after (A) 7 days, n=7 mice/group; (B) 7 days, n=9-10 mice/group; (C) 4 days, n=8 mice/group; (D) 3 days, n=5 mice/group. At termination the number of CLL cells is quantified in spleen using FACS staining of human CD45, CD19 and CD20. Each figure represents cells from individual CLL patients.
NOD.SCID mice received whole-body irradiation of 1 Gy 1 day prior to injection of primary patient cells.
PBMCs were isolated from peripheral blood of four CLL patients using the Ficoll Hypaque technique. Thereafter, 100×10^6 cells was injected i.v into irradiated NOD.SCID mice. The mice were treated i.p with 10 mg/kg of the ROR1 specific mAb 009-G03, or irrelevant negative control mAb at day 5-7 after transfer of cells to mice and sacrificed 3-7 days later. […]
Spleens were dissected out, minced, and lysed for red blood cells. The cell suspension were stained with fluorochrome conjugated mAb's recognizing human CD45, CD19 or CD20 and CLL cells were quantified as being either CD45^+CD19^+ or CD45^+CD20^+. […]

The subject of another assay is primary CLL cells. Nature of the assay: Primary CLL cells transferred i.p. and i.v. to NOD.SCID mice. Particulars: 10 mg/kg i.p. day 1 and 4 after transfer. In kind it is in vivo. On the procedure: PBMCs were isolated from peripheral blood of a one CLL patient using the Ficoll Hypaque technique. […] In comparison, only 1.1% were T cells.
Thereafter, 150×10^6 cells was injected i.p and i.v into NOD.SCID mice. The mice were treated i.p with 10 mg/kg of the ROR1 specific mAb 009-G03, or irrelevant negative control at day 1, and 4 after transfer. Mice were sacrificed day 7 and intra-peritoneal cells were collected using intra-peritoneal lavage of 8 ml PBS. Cells recovered from the peritoneum were stained for anti human CD45, anti CD3 (staining cells of human origin and human T cells respectively), anti CD19 and anti CD5 (staining CLL cells) (all antibodies from BD).

“Also recorded” adds a separate entry of the source.

B1: 009-G03: ROR1 specific mAb, VH SEQ ID NO: 21, VL SEQ ID NO: 22 (FIG. 12) (antibody, listed as Mus musculus, V domains shown)
VH: EVQLLESGGGLVQPGGSLRLSCAASGFTFSDYYMSWIRQAPGKGLEWVSAISGSGGSTYYADSVKGRFTISRDNSKNTLYLQMNSLRAEDTAVYYCAKEDWEGASFDYWGQGTLVTVSS
VL: QSVLTQPPSASGTPGQRVTISCSGSSSNIGINTVNWYQQLPGTAPKLLIYDNNKRPSGVPDRFSGSKSGTSASLAISGLRSEDEADYYCATWDDSLSGWVFGGGTKLTVLG
B1: the “number of grafted CLL cells in the spleen” value in assay [1] was “significantly reduces the number of grafted CLL cells in the spleen”. The “number of CLL cells in splenic tissue” value in the assay with primary CLL cells (collected day 7) was “very strong tendency to reduced numbers”. Moreover, the “number of CLL cells in the peritoneal fluid” value with primary CLL cells (collected day 7, versus isotype control) was “significantly reduces the number of CLL cells in the peritoneal fluid; also recorded: significantly reduces the number of grafted CLL cells”.
